Test results from PubChem BioAssay AID1508624 (National Center for Advancing Translational Sciences (NCATS), 2021).
Among all 48,000 compounds or so, about 120 (0.25%) were called active. Not shown: some 4% with an inconclusive outcome. Calls follow the shape of the dose curve; as a rule, active = well fitted activation curve with a large enough effect; inconclusive = small, poorly fitted or top-dose-only effect, or another doubt; inactive = no such curve, though single readings can be large or run the other way. Some of the results follow.

Assay: Primary qHTS for Identification of Small Molecule Activators of Huntingtin-Antisense Promoter Activity; also: nearly all actives have a fitted effect of over 55% in size
Details: HEK293 HTT-AS promoter firefly luciferase reporter, 24 h; series mostly up to 57.5 µM; activity change, positive = activation: at the top concentration
Procedure, shortened: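 HEK293 luciferase promoter-reporter cells (2,500/well) plated 24 h, then compounds added at up to 57.5 uM final for 24 h at 37 °C. Firefly luminescence by Dual-Glo, normalized to vehicle (0%) and zero RLU (-100%).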

Activity change, positive = activation, inactive:
O=C(c1cc2c(s1)-c1ccccc1OC2)N1CCN(c2ccc(F)cc2)CC1 -20.5%
COc1cc2c(cc1NC(=O)COc1ccc(Cl)cc1)oc1ccccc12 14.3%
COc1ccc(NC(=O)Cn2c(=O)n(Cc3ccco3)c(=O)c3oc4ccccc4c32)cc1Cl -16.5%
COc1ccc(-n2ncc3c2ncn2nc(Cc4ccccc4)nc32)cc1 -2.34%
Cc1ccccc1CNCc1c(C(=O)O)c(C)n(Cc2ccc(F)cc2Cl)c1C -13.3%
CC(=O)Nc1ccc(C(=O)Nc2ccc3c(c2)N(C2CCCC2)C(=O)c2ccccc2S3)cc1 -46%
Cc1nnc(N2CCC(C(=O)NC(C)C)CC2)c2nn(-c3ccccc3)c(C)c12 -7.6%
Cc1cccn2c(=O)c(-c3nnn[nH]3)cnc12 5.15% [at 25.1 µM, percent change from vehicle, -100% = no light]
Clc1ccccc1CN1CCc2nc(N3CCN(c4ncccn4)CC3)ncc2C1 -29.9%
O=C(Nc1ccc(F)cc1)c1cc2cc3ccc(Cl)cc3nc2o1 -2.86%
Cc1oc(-c2ccccc2Cl)nc1CS(=O)(=O)CC(=O)NC(C)c1ccccc1 (stereo not drawn) -26.5%
Cc1ccc2onc(CNC(=O)NCc3ccccc3)c2c1 3.15%
CCC(C(=O)Nc1ccccc1OC)n1c(C(=O)OC)cc2sc(Cl)cc21 (stereo not drawn) -11.7%
CCOCCCNC(=O)c1ccc2c(=O)n(CCc3ccc(OC)c(OC)c3)c(=O)[nH]c2c1 -11.7%
CC(=O)N1CCc2cc(S(=O)(=O)NC(CC(C)C)C(=O)NCCc3cccc(C)c3)ccc21 (stereo not drawn) 19%
CCOc1ccccc1CNC(=O)CSc1nnc(C)c2c(C)n(-c3ccccc3)nc12 -24.4%
O=c1[nH]c2ccc(NCc3ccc(-c4ccc(F)cc4)o3)cc2[nH]1 -24.1%
CC1CCC(NC(=O)Cn2ncc3c4ccccc4n(Cc4ccc(F)cc4)c3c2=O)CC1 (stereo not drawn) -3.61%
c1ccc2c(c1)ncc1nncn12 -11.4%
Cc1ccc(CN(C(=O)COc2ccc([N+](=O)[O-])cc2)c2ccccn2)o1 -10.2%
CCC1CCCCN1S(=O)(=O)c1cc2c(cc1C)NC(=O)CO2 (stereo not drawn) -26.4%
CC(=O)c1ccc(NC(=O)CSc2ccc3nnc(CCNS(=O)(=O)c4ccc(C)cc4)n3n2)cc1 -2.36%
Cc1ccc(Nc2ncc(C(=O)Nc3ccc(F)cc3F)c3ccccc23)cc1Cl -14.9%
CC(=O)c1cccc(NC(=O)C2CCN(S(=O)(=O)c3ccccc3)CC2)c1 3%
COc1ccc(CNC(=O)c2nn(C)c3c2CS(=O)(=O)c2ccccc2-3)cc1 -13.4%
CC1=C(C(=O)O)N2C(=O)[C@@H](NC(=O)[C@H](N)c3ccccc3)[C@H]2SC1 -0.73%
O=C(COc1ccccc1)Nc1nnc(SCc2cc(=O)n3cc(Cl)ccc3n2)s1 1%
COc1ccc(CCNC(=O)CCS(=O)(=O)c2cc3c(cc2Cl)NC(=O)CO3)cc1OC -12.4%
CCc1nnc(SCC(=O)Nc2cccc(C(F)(F)F)c2)c2cc3oc(C)cc3n12 -39.3%
CCCc1nn2cc(-c3ccc(C)c(C)c3)nc2s1 -35.9%
CCOC(=O)Cc1c(C)nc2c(-c3ccc(Cl)cc3)c(C(F)(F)F)nn2c1C -16.5%
COc1ccc(-c2noc(CSc3nnc(Cc4ccccc4)n3-c3cccc(C)c3)n2)cc1 -37.7%
COc1ccc(/C=C/C(=O)Nc2ccc3nc4c(c(Nc5ccc(OC)c(OC)c5)c3c2)CCCC4)cc1 -94.2%
CC1=C(C(=O)NCc2ccccc2F)C2(CCCCC2)OC1=O -8.15%
COCCNC(=O)c1nn(-c2ccc(C)cc2)c(=O)c2c1c1ccccc1n2C -8.47%
CO[C@@H]1C(N(C)C(=O)c2ccccc2)C[C@H]2O[C@]1(C)n1c3ccccc3c3c4c(c5c6ccccc6n2c5c31)C(=O)NC4=O (stereo partly drawn) -34.1%
Cc1ccc(CCNC(=O)C2CCCN(c3nnc(C)c4c(C)n(-c5ccccc5)nc34)C2)cc1 (stereo not drawn) -10.2%
O=C(Nc1ccccc1Cl)N1CCC(CN2CCCC2)CC1 -13.8%
CC1=C(c2ccc(F)cc2)S(=O)(=O)N=C1N1CCC(C(=O)NCCc2cccc(C)c2)CC1 -20%
COc1cccc(-c2nc(CS(=O)(=O)CC(=O)NCc3cccc(Cl)c3)c(C)o2)c1 -19.8%
Cc1ccc(CSc2ncc(Cl)c(C(=O)Nc3nnc(C)s3)n2)cc1 -30.8%
Cc1ccc(NC(=O)CC2Oc3ccccc3NC2=O)cc1C (stereo not drawn) -3.66%
COc1ccc(-c2cnnn2-c2ccc(NC(=O)c3ccccc3OC)cc2)cc1 -12.7%
COc1ccc(CCNC(=O)CN2C(=O)COc3ccc(S(=O)(=O)N4CCCC4)cc32)c(OC)c1 -13.9%
Cc1c(C(=O)NCc2cccc(Cl)c2)sc2nc3n(c(=O)c12)CCCC3 21.1%
Cc1c(C(=O)NCc2cccc(Br)c2)oc2ccc3c(c12)C(=O)CC(C)(C)O3 22.3%
CCN(CC)CCCNC(=O)c1ccc(Cn2c(SCc3ccccc3)nc3cccnc32)cc1 15%
Cn1c(=O)n(Cc2c(F)cccc2Cl)c(=O)c2c1nc1n2CCN1c1ccc(F)cc1 -6.75%
COc1ccc(-c2nc3sc(CCNC(=O)C(=O)Nc4cccc(NC(C)=O)c4)c(C)n3n2)cc1 -17.4%
Nc1nn(-c2ccccc2)nc1C(=O)OCc1ccc(Cl)cc1 -5%
COc1c(C)cccc1C(=O)Nc1ccc(-c2nc3ccccc3s2)c(Cl)c1 -18.2%
CCNC(=O)C1CCN(S(=O)(=O)c2ccc3c(c2)CCCN3C(C)=O)CC1 -11.7%
CCOc1cc(C(=O)Nc2ccc(-c3cn4cccnc4n3)cc2)cc(OCC)c1OCC -17.3%
CCCN(CCC)c1ccc(C2N=C(N)Nc3nc4ccccc4n32)cc1 (stereo not drawn) -44.2%
O=C(NCc1ccccc1)c1ccc(NC(=O)N2CC3CCCN3c3ccccc32)cc1 (stereo not drawn) -16.2%
CCCCNC(=O)CCCCCn1c(=O)[nH]c2ccccc2c1=O -9.47%
Cc1ccc(S(=O)(=O)c2nnn3c2nc(NCc2ccc4c(c2)OCO4)c2sccc23)cc1C -27.3%
Cc1ccc(C)c(N2CCN(S(=O)(=O)c3cc(C(=O)Nc4ccc(Oc5ccccc5)cc4)ccc3F)CC2)c1 -40.7%
Cc1nc2ccccn2c(=O)c1NC(=O)c1ccc(F)c(F)c1 1.73%
Cc1cccc(NC(=O)C2CCCN2S(=O)(=O)c2ccc3nc(-c4ccccc4)[nH]c3c2)c1 (stereo not drawn) -23.8%
Cc1ccc2c(c1)c1c(c(=O)n(-c3ccccc3)c(=O)n1CC(=O)NCC1CCCO1)n2C (stereo not drawn) -5.73%
Cc1ccccc1OCCSc1nc2ccc(NC(=O)c3cccc(F)c3)cc2s1 -35.6%
O=C(NCc1ccc2c(c1)CCN2C(=O)c1ccccc1)Nc1cccc(C(F)(F)F)c1 -46.4%
COc1cc2ncc3c(-c4ccc(C)cc4)nn(-c4ccc(F)cc4F)c3c2cc1OC -4.61%
CN(C)CCCNc1cc(N2CCN(C3CCCCC3)CC2)c2noc3c2c1C(=O)c1ccccc1-3 -18.1%
COc1ccc(Cn2ccnc2SCC(=O)Nc2nc3ccccc3s2)cc1 -17.6%
Cc1ccc(NC(=O)CN2C(=O)c3cccnc3Oc3ccc(Cl)cc32)cc1 -39.8%
CC(=O)c1ccc(NC(=O)c2ccc3c(c2)N(Cc2cccc(Cl)c2)C(=O)c2ccccc2S3=O)cc1 (stereo not drawn) -31.4%
Cc1ccccc1-c1nc(CN2CCC(C(=O)NCc3ccc(F)cc3)CC2)c(C)o1 -30.9%
CCOC(=O)c1c(C)n(-c2ccccc2)c2ccc(OC(=O)COc3ccc(Cl)cc3)cc12 -3.17%
Cc1ccc(C(C)C)c(O)c1 0.656%
Cc1cc(Nc2ccccc2C)n2nc(Cc3ccc(Cl)cc3)nc2n1 -20.9%
Cc1c(C(=O)NCc2ccccc2Cl)sc2ncnc(N(C)C3CCCCC3)c12 -31.3%
COc1ccc(NC(=O)c2cc3c(s2)-c2c(C)cccc2OC3)cc1Cl -30%
COc1ccc2nc(N(Cc3cccnc3)C(C)=O)sc2c1 9.21%
COc1cc(Cl)c(C)cc1Nc1nc2ccccc2c2nnc(C)n12 -0.822%
O=C(NCc1cccnc1)c1nn(-c2ccc(Cl)cc2)nc1CO -27.3%
COc1ccc(C2CC(=O)N3CN(C4CCCCC4)CSC3=C2C#N)c(OC)c1 (stereo not drawn) 6.48%
COC(=O)c1cc2oc(C)cc2n1Cc1ccc(Br)cc1F 19.3%
CCC(Oc1ccccc1-c1nnc(-c2ccccc2)o1)C(=O)Nc1ccc(C(C)=O)cc1 (stereo not drawn) -5.34%
COC(=O)c1ccc(NC(=O)CSc2ccc(-c3sc(-c4ccccc4)nc3C)nn2)cc1 -0.409%
CCc1ccc(-n2c(=O)c3cccnc3n2CC(=O)NCc2ccccc2)cc1 -10.2%
COc1ccccc1C1CC(=O)NC(C)=C1C(=O)OC1CCCCCC1 (stereo not drawn) -20.9%
O=C(NC1CC(=O)N(c2ccc(F)cc2)C1)c1ccco1 (stereo not drawn) -1.86%
COc1ccc(Nc2ncc3c(n2)CCN(Cc2ccccc2C)C3)c(OC)c1 1.42%
O=c1n(Cc2ccccc2Cl)c2ccccc2c2nc(-c3ccccc3)nn12 2.89%
Cc1nn2c(=O)cc(COC(=O)c3ccc(NC(=O)COc4ccc(C)c(C)c4)cc3)nc2s1 1.72%
COC(=O)C(C)Sc1ccc2nnc(CCNS(=O)(=O)c3ccc(C)cc3)n2n1 (stereo not drawn) -4.27%
Cc1ncc(CO)c2c1Oc1nc(-c3ccccc3Cl)nc(SCc3ccccc3F)c1C2 -19.3%
COCCCNC(=O)Cn1cnc2sc(C)c(S(=O)(=O)N3CCC(C)CC3)c2c1=O 15%
CC(C)NC(=O)c1ccc(Cn2c(SCC(N)=O)nc3ccccc3c2=O)cc1 -11.5%
CCOc1ccc(C2CC(=O)Nc3nc(SCc4ccccc4C)[nH]c(=O)c32)cc1OC (stereo not drawn) -44.1%
Cc1ccc(CCNC(=O)c2ccc3nc(N4CCC(C)CC4)sc3c2)cc1 -73.1%
COc1ccc(-c2nc3sc(CCNC(=O)c4ccco4)c(C)n3n2)cc1 23.9%
Cn1cc(CN(C(=O)Nc2ccccc2)C2CCCCC2)c2ccccc21 -41.4%
COc1cc2c(cc1OC)CN(C(=O)Nc1ccccc1)CC2 -20.2%
CN(C)c1ccc(CNS(=O)(=O)c2ccc(-c3cc(C(F)(F)F)on3)s2)cc1 -21%
Cc1cccc(N2CCN(S(=O)(=O)c3c(C)nc4scc(C)n4c3=O)CC2)c1C -26.3%
